# Assay results from the supplement of paper PMC9446081.
# About 220 (0.56%) of roughly 39,000 compounds showed activity. The list shows a part of the results.
# Test system: Escherichia coli K-12 BW25113
# Experiment: relative growth (OD600 normalised to plate interquartile mean) (fraction); higher = less growth inhibition, active = 0.2 or less
# Settings: 50 µM; LB; incubation time: overnight (16-24 h)
# 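Also: static incubation at 37 °C against the wild-type strain, values averaged over two biological replicates.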
row,Compound,relative growth
1,C[C@@H]1CN([C@@H](C)CO)C(=O)c2cc(NC(=O)C3CCCCC3)ccc2O[C@@H](C)CCCCO[C@H]1CN(C)Cc1ccccc1,inactive: 0.984
2,CC(C)[N+](C)(CCOC(=O)C1c2ccccc2Oc2ccccc21)C(C)C.[Br-],inactive: 1.03
3,O=C(C[C@H]1CC[C@@H]2[C@H](COC[C@@H](O)CN2S(=O)(=O)c2ccc(F)cc2)O1)N[C@@H]1CCN(Cc2ccccc2)C1,inactive: 1.01
4,C[C@H](CO)N1C[C@H](C)[C@@H](CN(C)Cc2ccc(Cl)c(Cl)c2)OCCCC[C@H](C)Oc2ccc(NS(=O)(=O)c3ccc(F)cc3)cc2C1=O,inactive: 0.986
5,Cc1n[nH]c(=O)[nH]c1=O,inactive: 1
6,COc1ccc(NC(=O)Nc2ccc3c(c2)CC(=O)N([C@@H](C)CO)C[C@H](C)[C@H](CN(C)Cc2ccc(Oc4ccccc4)cc2)O3)cc1,inactive: 1.03
7,C[N+]1(C)C[C@@H](O)C[C@H]1C(=O)O,inactive: 0.989
8,C[C@@H]1CN([C@H](C)CO)C(=O)c2cc(C3=CCCCC3)cnc2O[C@H]1CN(C)C(=O)CN1CCOCC1,inactive: 0.988
9,C[C@H]1CN([C@@H](C)CO)C(=O)Cc2cc(NC(=O)Nc3ccc(C(F)(F)F)cc3)ccc2O[C@H]1CN(C)Cc1ccc2c(c1)OCO2,inactive: 1.02
10,Cc1noc(C)c1S(=O)(=O)N(C)C[C@H]1OCCCC[C@H](C)Oc2ccc(NS(C)(=O)=O)cc2C(=O)N([C@H](C)CO)C[C@H]1C,inactive: 1
11,COc1ccc(S(=O)(=O)N(C)C[C@H]2OCCCC[C@H](C)Oc3ccc(NS(C)(=O)=O)cc3C(=O)N([C@H](C)CO)C[C@@H]2C)cc1,inactive: 1.02
12,COc1ccc(S(=O)(=O)Nc2ccc3c(c2)C(=O)N([C@@H](C)CO)C[C@H](C)[C@H](CN(C)C(=O)Nc2ccc(C(F)(F)F)cc2)OCCCC[C@H](C)O3)cc1,inactive: 1.02
13,C[C@H](CO)N1C[C@H](C)[C@H](CN(C)S(=O)(=O)c2cccs2)Oc2c(NS(=O)(=O)c3cccs3)cccc2C1=O,inactive: 1.01
14,COc1ccc(NC(=O)Nc2ccc3c(c2)[C@H]2C[C@H](CC(=O)N4CCN(C)CC4)O[C@H](CO)[C@H]2O3)cc1,inactive: 1.01
15,C[C@@H]1CN([C@H](C)CO)C(=O)c2cc(NC(=O)C3CC3)ccc2O[C@H]1CN(C)Cc1ccc(C(=O)O)cc1,inactive: 0.983
16,COc1ccc(NC(=O)N(C)C[C@@H]2OCc3ccccc3-c3c(n(C)c4ccccc34)C(=O)N([C@@H](C)CO)C[C@H]2C)c(OC)c1,inactive: 0.978
